Assay results published in PubChem BioAssay AID1347044 (National Center for Advancing Translational Sciences (NCATS), 2019).
The list shows a part of the results. Further columns of the screen follow, without active or inactive calls. The list favours compounds with an active or inconclusive main result. Words in brackets tell the shape of the fitted curve; partial curves, single points and poor fits give uncertain potencies.

Experiment: Natriuretic polypeptide receptor (hNpr1) antagonism - Confirmation; also: nearly all actives have a fitted effect of over 70% in size
Conditions: HEK293 hNpr1 cGMP GloSensor luminescence, ANP-stimulated; measured here: HEK-hNpr1 cytotoxicity, CellTiter-Glo
Description: In order to identify small molecular compounds that inhibit the hNpr1 receptor we developed a high-throughput assay to measure inhibition of the guanylate cyclase activity of the receptor. cGMP production was measured using a circular permutated Firefly luciferase (FLuc) enzyme functionally linked to the cGMP binding domain of human phosphodiesterase 5 (GloSensor technology pGS-40F, (Fan, F. et al. 2008). The cGMP-sensor was expressed in human embryonic kidney 293 (HEK-293) cells and FLuc activity was measured after stimulation with hNrp agonist peptide. hNrp agonists activates the receptor's associated guanylyl cyclase (GC) domain producing cGMP which then binds to the GloSensor resulting in FLuc activation, the enzymatic activity of which can be measured as bioluminescence with addition of luciferin substrate. A cytotoxicity counter-screen using the HEK-hNpr1-cGMP-sensor cells was also performed on the follow-up compounds. F. Fan, B. F. Binkowski, B. L. Butler, P. F. Stecha, M. K. Lewis, K. V. Wood, Novel genetically encoded biosensors using firefly luciferase. ACS Chem Biol 3, 346-351 (2008).
PROTOCOL TABLES (as described by Inglese J, Shamu CE and Guy RK. 2007) SEQUENCE No. (e.g., 1, 2, 3, etc.); PARAMETER (e.g., Cells, Incubation, Reagent, etc.); VALUE and DESCRIPTION. GLOSENSOR PROTOCOL 1. Cells. Seed 1500 HEK293 cGMP-sensor cells expressing hNpr1 per well in 4uL into Greiner 1536-well white/solid bottom high base, tissue culture-treated plates. 2. Incubation. Incubate plated cells at 37C in 5% CO2, 95% RH overnight. 3. Reagent. Add 1uL per well GloSensor reagent from Promega (2% final concentration) or CO2 independent media vehicle control to respective columns of Greiner 1536-well plates. 4. Incubation. Incubate plated cells at room temperature for 2 h, protect from light. 5. Compounds. Library compounds and A-71915 control added at 23 nL per well, transferred by Pin Tool. 6. Incubation. Incubate plated cells for 30 min. at room temperature, protect from light. 7. Detector. GloSensor baseline pre-read luminescence measured using CCD-based camera (Viewlux). 8. Compound. Add 1uL of hNppA peptide to 0.1 nM final concentration to stimulate hNpr1 or CO2 independent media as vehicle control. 9. Incubation. Incubate treated cells at room temperature for 20 min., protect from light. 10. Detector. GloSensor post-hNppA luminescence measured using CCD-based camera (Viewlux). NOTES (numbers refer to Sequence numbers above) 1. HEK293 cells expressing hNpr1 and GIP/pGS-40F grown to 85-95% confluence (48-72 h) in T175 culture flasks (CO2 independent media supplemented with 10% FBS, 1% Pen/Strep antibiotics and 1 ug/mL puromycin). Trypsinize and harvest cells from T175 culture flasks and filter through 40 um cell strainer. Cells counted with Invitrogen Countess (30,000,000 - 50,000,000 cells/flask). Cells diluted to a final concentration of 375 cells/uL in CO2 independent media and a Millipore multidrop used to dispense 1500 cells per well (4uL/well) into 13 1536-well Greiner White/Solid bottom, high base tissue-culture treated (TC) plates and one Aurora 1536-well Black/Clear bottom, low base, TC plate (for visual inspection of cell health throughout the duration of the assay). 2. Cells incubated overnight at ambient temperature, 24 h. at 37C in 95% RH incubator protected from light, covered with metal lid with gas-exchange holes. 3. Prepare GloSensor Reagent (Promega): Reconstitute GloSensor luciferase substrate by adding 8.2mL Hepes buffer to 250mg substrate, mix well, protect from light and stored at -80C. Prepare a fresh 12% GloSensor solution in CO2 independent supplemented plating media (see above). Mix well and store at ambient temperature, protected from light. 1uL 12% GloSensor Luciferase Reagent added (2% final concentration) to respective columns of 13 x 1536-well Greiner plate with BioRaptr, 1uL CO2 independent plating media added to respective columns as vehicle control with BioRaptr. 4. […]
Tags tell the direction and shape of the fitted curve.

| Compound | CC50 |
| --- | --- |
| COc1ccc(-c2noc(CC3CCN(C(=O)c4cc(Cl)ccc4OC)CC3)n2)cc1 | 24.3 µM [falling, partial curve] |
| O=C(COc1ccc(Cl)cc1)N1CCC(Cc2nc(-c3ccccc3)no2)CC1 | 19.3 µM [falling, partial curve] |
| COc1ccc(-c2cc(N3CCN(C(=O)c4ccc(OC)cc4OC)CC3)n[nH]2)cc1 | 19.3 µM [falling, partial curve] |
| O=C(CCC1CCN(C(=O)c2ccccc2F)CC1)Nc1cccc(Cl)c1 | 30.6 µM [falling, single point] |
| CN(C)[S+](=O)([O-])c1ccc2c(c1)OCCN(Cc1ccc(C(F)(F)F)cc1)C2 | 28 µM [falling, partial curve] |
| COc1ccccc1C(=O)NC1CCN(c2cc(C(F)(F)F)nc(C)n2)CC1 | 27.3 µM [falling, single point] |
| CN(C)c1cccc(Oc2nnnn2[C@H]2CO[C@H]3[C@@H]2OC[C@@H]3NC(=O)c2ccccc2)c1 | 21.7 µM [falling, partial curve] |
| O=C(Nc1ccccc1)N1CC(Oc2ccc(-c3noc(-c4ccncc4)n3)cc2)C1 | 6.85 µM [falling, full curve] |
| CC(C)c1ccc(CC(=O)N2CCCc3ncc(C(=O)Nc4ccccc4)cc32)cc1 | 19.8 µM [falling, partial curve] |
| O=C1COc2ccc(N3CCCC3)nc2CN1Cc1ccc(C(F)(F)F)cc1 | 49.8 µM [falling, single point] |
| COc1ccc(NC(=O)c2ccc3c(c2)NC(C)(CNc2ccccc2)CO3)cn1 (stereo unspecified) | 35.3 µM [falling, partial curve] |
| COc1ccc(-c2nnc(C[C@@H]3C[C@@H](C(C)C)[C@H](CNc4ccccn4)C=C3C)o2)cc1 | 31.4 µM [falling, partial curve] |
| CCCCN(C)C(=O)CC1CCN(c2ccnc(OC)n2)CC1 | 19.3 µM [falling, partial curve] |
| Cc1ccc(OCCC2CCN(C(=O)Cc3cccnc3)C2)cc1 (stereo unspecified) | 30.6 µM [falling, single point] |
| CN(Cc1cccnc1)c1nc2c(c(=O)[nH]1)CCN(Cc1ccc(Cl)cc1F)CC2 | 17.2 µM [falling, partial curve] |
| Fc1cccc(CN2CCC(Oc3ccc(-c4noc(C5CC5)n4)cc3)C2)c1 (stereo unspecified) | 24.3 µM [falling, partial curve, poor fit] |
| Cc1ccc(C(=O)N2CCN(C(=O)c3nnn4c3COC(c3ccc(Cl)cc3)C4)CC2)c(C)c1 (stereo unspecified) | 21.7 µM [falling, partial curve] |
| Cc1ccc(CN2C[C@@H](CO)[C@H](c3nc(-c4ccncc4)no3)C2)cc1 | 24.3 µM [falling, partial curve] |
| COc1ccccc1-c1ccc(CN2CCCC(c3nc4ccc(C)cc4c(=O)[nH]3)C2)cc1 (stereo unspecified) | 43.2 µM [falling, single point] |
| COc1ccc(C(=O)Nc2ccc(-c3noc([C@@H]4CCCN4Cc4ccco4)n3)cn2)cc1 | 19.3 µM [falling, partial curve] |
| Cn1cc(-c2cnc3[nH]cc(CC(=O)Nc4ccc(C(F)(F)F)cc4)c3c2)cn1 | 19.8 µM [falling, partial curve] |

| Compound | CC50 |
| --- | --- |
| O=C(NC1CCN(Cc2ccccc2)CC1)c1cc2n(n1)CC(c1ccc(Cl)cc1)OC2 (stereo unspecified) | 9.68 µM [falling, partial curve] |
| CC(C)C1=NOC2(CCN(Cc3ccc(C(F)(F)F)cc3)CC2)C1 | 22.2 µM [falling, partial curve] |
| COc1cccc(-c2ccccc2NC(=O)C2CCN(Cc3cc(OC)ccc3O)CC2)c1 | 38.5 µM [falling, single point] |
| COc1ccc(C(=O)N[C@H]2CO[C@H]3[C@@H]2OC[C@@H]3n2nnnc2Oc2cccc(N(C)C)c2)cc1 | 17.2 µM [falling, partial curve] |
| CN(CCc1ccccc1)C(=O)CCC1CCN(c2cc(NC3CC3)ncn2)CC1 | 21.7 µM [falling, partial curve] |
| COc1cccc(N2CCN(c3nc(C(=O)NCc4cccc(C)c4)cs3)CC2)c1 | 15.3 µM [falling, partial curve] |
| Cc1ccc(C(=O)N2CCN(c3cc(-c4cccs4)[nH]n3)CC2)c(C)c1 | 24.3 µM [falling, partial curve] |
| Fc1ccc(CN2CCC(Oc3ccccc3-c3nc(-c4cnccn4)no3)C2)cc1F (stereo unspecified) | 24.3 µM [falling, partial curve, poor fit] |
| Cc1ccc(C(=O)N2CCC(Cc3nc(-c4ccc(F)cc4)no3)CC2)cn1 | 1.93 µM [falling, full curve] |
| O=C1COCC2(CN1)CN(c1ccc(Oc3ccccc3)cc1)C2 | 11.1 µM [falling, full curve] |
| O=C(c1cc(F)cc(F)c1)N1CCC(Cc2nc(-c3ccccc3)no2)CC1 | 9.68 µM [falling, partial curve] |
| CN(C)c1ccc(CN2CCn3c(nn(-c4ccc([N+](=O)[O-])cc4)c3=O)C2)cc1 | 34.3 µM [falling, single point] |
| O=C(c1ccncc1)N1C2CCC1CN(c1ccc(C(F)(F)F)cc1)C2 | 21.7 µM [falling, partial curve] |
| O=C(NCCc1cccnc1)c1cc2n(n1)CC(c1ccc(Br)cc1)OC2 (stereo unspecified) | 19.3 µM [falling, partial curve] |
| O=C(c1ccc2cc[nH]c2c1)N1CCC2(CC1)N=C(c1ccc(Cl)cc1)NO2 | 24.3 µM [falling, partial curve] |
| CCCn1cc(C(=O)NC(C)c2cnn(-c3cccc(F)c3)c2C)c(C)n1 (stereo unspecified) | 3.85 µM [falling, full curve] |
| O=C(NCc1ccccc1F)c1ccc2c(c1)CN(Cc1ccncc1)CCO2 | 19.3 µM [falling, partial curve] |
| Cc1cc(=O)n(CC(=O)Nc2ccc(Cl)cc2F)c(N(C)Cc2ccccc2)n1 | 19.3 µM [falling, partial curve] |
| CC(C)NC(=O)N[C@H]1C[C@@H](Cc2cc(CN3CCN(c4ccccc4)CC3)on2)C1(C)C | 15.3 µM [falling, partial curve] |
| Cc1ccc(NC(=O)N2CCC3(CC2)CC(Cc2nc(-c4ccccc4)no2)CCO3)cc1C (stereo unspecified) | 12.2 µM [falling, partial curve] |
| COCc1nc(-c2ccc(OC3CCN(C(=O)CCc4ccc(OC)cc4)C3)cc2)no1 (stereo unspecified) | 27.3 µM [falling, partial curve] |

| Compound | CC50 |
| --- | --- |
| O=C(c1ccc2nc[nH]c2c1)N1CCC(CO)(CCCc2ccccc2)CC1 | 21.7 µM [falling, partial curve] |
| CCn1nc(C)c(CNC(=O)c2cc(COc3ccc4ncccc4c3)on2)c1C | 13.7 µM [falling, partial curve] |
| COc1cccc(CC(=O)N2CCC(n3cc(-c4nc(-c5ccccc5)no4)nn3)CC2)c1 | 19.3 µM [falling, partial curve] |
| COc1ccc([S+](=O)([O-])N2CCC3(CC2)OCCN(c2ccc(F)cc2)C3=O)cc1 | 44.4 µM [falling, single point] |
| COc1ncccc1-c1cnc2[nH]cc(CC(=O)Nc3cccc(Cl)c3)c2c1 | 35.3 µM [falling, partial curve] |
| O=C(c1ccc(F)cc1)N1CCC2(CC1)CC(N(Cc1ccc(F)cc1)C1CC1)CCO2 (stereo unspecified) | 27.3 µM [falling, single point] |
| O=C1COc2ccc(NCc3cccs3)nc2CN1CCOc1ccccc1 | 31.4 µM [falling, partial curve] |
| COc1cccc(-c2noc(CC3CCN(C(=O)c4cccc(F)c4)CC3)n2)c1 | 13.7 µM [falling, partial curve] |
| CC1=C[C@@H](CNS(C)(=O)=O)[C@H](C(C)C)C[C@H]1Cc1nc2ccccc2n1C | 35.3 µM [falling, partial curve] |
| O=C(Nc1ccc(Oc2ccccc2)cc1)O[C@@H]1CO[C@H]2[C@@H]1OC[C@@H]2NC(=S)Nc1cccc2ccccc12 | 10.9 µM [falling, partial curve] |
| CCOc1ccc(CC(=O)N2CCC(Cc3nc(-c4ccc(F)cc4)no3)CC2)cc1 | 6.85 µM [falling, full curve] |
| Cc1ccsc1C(=O)N1CCN(c2cc(-c3ccc(Cl)cc3)[nH]n2)CC1 | 24.3 µM [falling, partial curve] |
| O=C(NCc1cccs1)c1csc(N2CCN(c3ccccc3F)CC2)n1 | 30.6 µM [falling, single point] |
| Cc1ccc(NC(=O)c2cc3n(n2)CC(c2ccc4c(c2)OCO4)OC3)cc1Cl (stereo unspecified) | 34.3 µM [falling, single point] |
| CN(C)c1ccc2ncc(Nc3ccc(Oc4ccccc4)cc3)n2n1 | 31.4 µM [falling, partial curve] |
| CCNC(=O)N1CCOc2ccc(CCC(=O)Nc3ccc(C)cc3)cc2C1 | 19.3 µM [falling, partial curve] |
| CCOc1ccc(C(=O)N2CCCN(c3cc(-c4ccc(F)cc4)[nH]n3)CC2)cc1 | 19.3 µM [falling, partial curve] |
| O=C(c1cc(F)ccc1F)N1CCC2(CC1)N=C(c1ccc(Cl)cc1)NO2 | 34.3 µM [falling, single point] |
| Cc1ccccc1S(=O)(=O)N1CCCC(CCC(=O)Nc2cccc(Cl)c2)C1 (stereo unspecified) | 21.7 µM [falling, partial curve] |
